Measurements reported in PubChem BioAssay AID588342 (National Center for Advancing Translational Sciences (NCATS), 2011).
Where “and” joins values, the source holds several entries; their conditions need not be identical. Equal values may be shown once. The campaign covered roughly 360,000 compounds. About 25,000 (6.9%) were called active. The inconclusive results got no clear call from the source; some entries with a clear call stand among them for comparison. The call rests on the fitted dose curve; in most records, active means well fitted inhibition curve with a large enough effect; inconclusive means small, poorly fitted or top-dose-only effect; inactive means flat fitted curve, though single readings scatter. A potency beside an inconclusive call is a rough fit, not a confirmed value.

target: Luciferin 4-monooxygenase (Photinus pyralis) (UniProt P08659); experiment: qHTS profiling assay for firefly luciferase inhibitor/activator using purifed enzyme and Km concentrations of substrates (counterscreen for miR-21 project); details: purified FLuc, luminescence inhibition; series mostly up to 57.5 µM; further: nearly all actives have a fitted effect of over 55% in size
Sequence of UniProt P08659 (P08659 whole entry, looked up): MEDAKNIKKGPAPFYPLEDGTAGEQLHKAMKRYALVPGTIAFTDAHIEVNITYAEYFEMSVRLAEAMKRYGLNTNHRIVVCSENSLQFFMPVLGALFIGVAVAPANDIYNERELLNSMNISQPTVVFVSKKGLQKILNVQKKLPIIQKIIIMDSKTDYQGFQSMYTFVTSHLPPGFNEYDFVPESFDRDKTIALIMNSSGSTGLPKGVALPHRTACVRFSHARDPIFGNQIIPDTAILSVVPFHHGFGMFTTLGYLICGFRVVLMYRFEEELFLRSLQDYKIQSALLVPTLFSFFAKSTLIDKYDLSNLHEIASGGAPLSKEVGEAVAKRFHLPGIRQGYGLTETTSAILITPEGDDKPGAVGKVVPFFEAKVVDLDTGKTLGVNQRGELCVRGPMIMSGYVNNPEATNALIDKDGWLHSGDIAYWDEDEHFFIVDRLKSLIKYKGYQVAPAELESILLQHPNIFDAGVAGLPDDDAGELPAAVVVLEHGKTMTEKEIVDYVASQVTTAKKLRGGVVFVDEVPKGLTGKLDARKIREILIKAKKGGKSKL
How it was run: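 Purified P. pyralis luciferase (10nM final) with 10uM D-luciferin and 10uM ATP (Km levels) in 50mM Tris acetate pH 7.5, 10mM Mg acetate, 0.01% Tween-20, 0.05% BSA; qHTS 6-point titration, ~60 µM downward; luminescence read.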
Potency means the concentration at half of the fitted maximal effect; tags describe the fitted curve by direction and shape.

Row | SMILES | Potency
1 | CCc1ccc(CNC(=O)Cc2ccc(NC(=O)N3CCSc4ncccc43)cc2)cc1 | inconclusive: 23.9 µM [inhibitor, single point]
2 | O=C(CN1C(=O)C2CC=CCC2C1=O)Nc1ccc(OC(F)(F)F)cc1 (stereo unspecified) | inactive
3 | CCn1ccnc1CNC(=O)c1ccc2oc(CCCc3ccccc3)nc2c1 | inactive
4 | CCN(CC)C(=O)CSc1nc(N)c2c3c(sc2n1)CC(C)CC3 (stereo unspecified) | active: 1.9 µM
5 | Cn1cc([N+](=O)[O-])c(C(=O)Nc2ccc3nc(-c4ccccc4)[nH]c3c2)n1 | active: 4.78 µM
6 | Oc1ccc(NCc2cccc(OCc3ccccc3)c2)cc1 | inconclusive: 19 µM [inhibitor, partial curve]
7 | O=C(NCc1ccco1)c1ccc(-c2cccc(Cl)c2)o1 | inconclusive: 26.9 µM [inhibitor, single point]
8 | COc1ccc(C(=O)NCCC2=CCCCC2)cc1OC | inconclusive: 16.9 µM [inhibitor, partial curve]
9 | CSc1ccc(C2=CC(=O)C[C@H](c3ccc(Cl)cc3)C2)cc1 | inactive
10 | Cc1cccc(NC(=O)/C(C#N)=C/c2ccc(Cl)cc2)n1 | active: 2.39 µM
11 | COc1ccc(/C(C)=N/Nc2nccnc2Cl)cc1 | active: 7.57 µM
12 | CCOc1ccc(-c2cc(NC(=O)Nc3cccc(C(C)=O)c3)c(C(=O)OC)s2)cc1 | inconclusive: 6.01 µM [inhibitor, full curve]
13 | O=C(Cn1cc(Cl)c([N+](=O)[O-])n1)NCCC1=CCCCC1 | inactive
14 | O=C(Nc1ccnn1C1CCN(Cc2cc(Cl)ccc2O)CC1)C1CC1 | inactive
15 | COc1ccccc1CCNC(=O)CN1C(=O)c2ccccc2S1(=O)=O | inconclusive: 21.3 µM [inhibitor, partial curve, poor fit]
16 | CCOC(=O)Cc1csc(NC(=O)c2ccoc2C)n1 | inconclusive: 23.9 µM [inhibitor, partial curve, poor fit]
17 | N=C1/C(=C/c2ccc(OCc3ccccc3)cc2)C(=O)N=C2SC(CC(=O)N3CCOCC3)=NN12 | inconclusive: 21.3 µM [inhibitor, single point]
18 | COC(=O)c1cccc(NC(=O)c2ccccc2)c1 | inconclusive: 23.9 µM [inhibitor, single point]
19 | O=C(N=Nc1c(O)[nH]c2ccc(F)cc12)c1ccc(NS(=O)(=O)c2cccs2)cc1 | inconclusive: 4.78 µM [inhibitor, full curve]
20 | COc1ccc(OC)c(/C=N/NC(=O)c2cc(-c3ccc(C)o3)nc3ccccc23)c1 | inconclusive: 1.35 µM [inhibitor, full curve]
21 | O=C(/C=C/c1ccccc1)OCc1cncs1 | active: 26.9 µM
22 | Cc1c(NC(=O)c2cc(-c3ccc(Cl)c(Cl)c3)on2)c(=O)n(-c2ccccc2)n1C | inconclusive: 37.9 µM [inhibitor, partial curve, poor fit]
23 | C/C(=N\NC(=O)c1cccc(Br)c1)c1cccnc1 | inactive

Row | SMILES | Potency
24 | CCOCCCNC(=O)/C(C#N)=C/c1cc(OC)c(O)c([N+](=O)[O-])c1 | inconclusive: 30.1 µM [inhibitor, partial curve, poor fit]
25 | COc1ccc(-c2cc(-c3ccccc3)no2)cc1 | active: 0.379 µM
26 | O=C(O)C(Cc1ccccc1)N1C(=O)c2cccc3cccc(c23)C1=O (stereo unspecified) | inactive
27 | Cc1[nH]c2ccc(Br)cc2c(=S)c1C/C=C/Cl | inconclusive: 37.9 µM [inhibitor, single point]
28 | Cc1ccc(-n2ncc(C(=O)N3CCN(c4cccc(C)c4)C(C)C3)c2C2CCN(C(=O)OC(C)(C)C)CC2)cc1 (stereo unspecified) | inactive
29 | COC(=O)c1ccccc1NC(=O)NN1CCN(C)CC1 | inactive
30 | Cc1nn(CCCC(=O)NCc2ccc(F)cc2)c(=O)c2c1sc1ccccc12 | inactive
31 | CCOC(=O)c1ccc(N=Cc2c(O)c3ccccc3oc2=O)cc1 | inconclusive: 3.79 µM [inhibitor, partial curve, poor fit]
32 | CCOc1ccc2nc(NC(=O)c3cc(=O)c4ccc(C)cc4o3)sc2c1 | inconclusive: 9.53 µM [inhibitor, partial curve, poor fit]
33 | N#Cc1c(NC(=O)c2cccc(S(=O)(=O)Nc3ccc(C(=O)O)cc3)c2)sc2c1CCCC2 | active: 19 µM
34 | O=C(CSc1nc2ccccc2c(=O)n1NC(=O)c1ccccc1)c1ccc(Cl)cc1 | inconclusive: 37.9 µM [inhibitor, partial curve, poor fit]
35 | O=C(CSc1ccccn1)Nc1nc2c(ccc3ccccc32)s1 | inconclusive: 37.9 µM [inhibitor, single point]
36 | CC(=O)c1ccc(-c2ccc(C(=O)NC3CCCCCC3)o2)cc1 | inconclusive: 26.9 µM [inhibitor, partial curve, poor fit]
37 | CC1=C(C(=O)Nc2ccc(C)cc2C)C(c2ccccc2[N+](=O)[O-])n2ncc(C(=O)Nc3ccccc3)c2N1 (stereo unspecified) | inconclusive: 13.5 µM [inhibitor, partial curve, poor fit]
38 | COc1ccc2oc(C(=O)Nc3nccs3)c(C)c2c1 | active: 0.536 µM
39 | COc1ccc(CCNC(=O)c2cc3ccccc3oc2=O)cc1 | inconclusive: 10.7 µM [inhibitor, partial curve]
40 | CCOc1ccc(NC(=O)c2ccc3c(SCC(=O)O)c4c(nc3c2)CCCC4)cc1 | active: 21.3 µM and active: 16.9 µM
41 | Clc1ccc(N2CCOCC2)nn1 | inactive
42 | COc1ccc(Cc2nc3ccc(C(=O)NC4CCOC4)cc3o2)cc1 (stereo unspecified) | inactive
43 | CCCCN1C(=S)NC[C@@H]1Cc1cccc2ccccc12 | inconclusive: 19 µM [inhibitor, single point]
44 | CN1/C(=C\C=N\NC(=O)c2ccc(O)cc2)C(C)(C)c2ccccc21 | inconclusive: 37.9 µM [inhibitor, partial curve, poor fit]
45 | Nn1c(SCC(=O)NC(=O)Nc2ccc3c(c2)OCCO3)nnc1C1CC1 | active: 19 µM
46 | Cc1cc(C(=O)O)ccc1-c1ccc(/C=C2\SC(=O)N(CC(=O)Nc3ccc4c(c3)OCO4)C2=O)o1 | inconclusive: 26.9 µM [inhibitor, partial curve, poor fit]
